According to the supplement of paper PMC12217912:
This is one part of the list. The full chains were built here from the parent and the listed change. Inactive controls read about 0.05.

B1: TEV protease; numbered along this chain (parent)
chain: MGESLFKGPRDYNPISSSICHLTNESDGHTTSLYGIGFGPFIITNKHLFRRNNGTLVVQSLHGVFKVKDTTTLQQHLVDGRDMIIIRMPKDFPPFPQKLKFREPQREERICLVTTNFQTKSMSSMVSDTSCTFPSGDGIFWKHWIQTKDGQCGSPLVSTRDGFIVGIHSASNFTNTNNYFTSVPKNFMELLTNQEAQQWVSGWRLNADSVLWGGHKVFMVKPEEPFQPVKEATQL

Variants of: B1
Assay: raw area under fraction-flipped curve 0-4 h after induction (AUC4h, not background-subtracted), DNA-recorder readout of cleavage of the substrate (dimensionless); higher = more cleavage of the substrate by the protease variant
Details: temperature: 34 °C; time window: 0-4 h after rhamnose induction
Description: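 In vivo DNA recorder in E. coli TOP10(DE3) ΔrhaA at 34 °C. Each TEVp single-site mutant (parent TEVp 0) is paired with a single-site variant of the 7-mer TEVs (canonical ENLYFQ|S). The substrate sits between flexible linkers in a Bxb1-sfGFP-TEVs-SsrA fusion, so cleavage stabilises Bxb1 and speeds flipping of a recombination array, read by NGS. The value is the raw area under the fraction-flipped curve over 0-4 h after rhamnose induction (AUC4h), with ≥20 reads per time point. It is not background-subtracted; inactive controls average about 0.047.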
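Note: Bxb1 expression induced with 0.2% (w/v) L-rhamnose at OD600 near 0.5, cultures sampled hourly, flipped fraction per protease–substrate barcode pair counted by paired-end Illumina sequencing.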

Variant	area with substrate ENLYFQA	area with substrate ENLYFQF	area with substrate ENLYFQH	area with substrate ENLYFQL	area with substrate ENLYFQN	area with substrate ENLYFQP	area with substrate ENLYFQQ	area with substrate ENLYFQR	area with substrate ENLYFQS	area with substrate ENLYFQW	area with substrate ENLYFQC	area with substrate ENLYFQD	area with substrate ENLYFQG	area with substrate ENLYFQI	area with substrate ENLYFQK	area with substrate ENLYFQM	area with substrate ENLYFQT	area with substrate ENLYFQV	area with substrate ENLYFQY	area with substrate ENLYFQE
MGESLFKGPRDYNPISSSICHLTNESDGHTTSLYGIGFGPFIITNKHLFRRNNGTLVVQSLHGVFKVKDTTTLQQHLVDGRDMIIIRMPKDFPPFPQKLKVREPQREERICLVTTNFQTKSMSSMVSDTSCTFPSGDGIFWKHWIQTKDGQCGSPLVSTRDGFIVGIHSASNFTNTNNYFTSVPKNFMELLTNQEAQQWVSGWRLNADSVLWGGHKVFMVKPEEPFQPVKEATQL [F101V]	0.0789	0.0638	0.0568	0.0695	0.0501	0.0521	0.0536	0.0751	0.0688	0.0705										
MGESLFKGPRDYNPISSSICHLTNESDGHTTSLYGIGFGPFIITNKHLFRRNNGTLVVQSLHGVFKVKDTTTLQQHLVDGRDMIIIRMPVDFPPFPQKLKFREPQREERICLVTTNFQTKSMSSMVSDTSCTFPSGDGIFWKHWIQTKDGQCGSPLVSTRDGFIVGIHSASNFTNTNNYFTSVPKNFMELLTNQEAQQWVSGWRLNADSVLWGGHKVFMVKPEEPFQPVKEATQL [K90V]	0.112			0.0723	0.0613		0.0822		0.103	0.0544	0.125	0.0698	0.0962	0.0664	0.0703	0.0845	0.0625	0.058	0.063	
MGESLFKGPRDYNPISSSICHLTNESDGHTTSLYGIGFGPFIITNKHLFRRNNGTLVVQSLHGVFKVKDTTTLQQHLVDGRDMIIIRMPHDFPPFPQKLKFREPQREERICLVTTNFQTKSMSSMVSDTSCTFPSGDGIFWKHWIQTKDGQCGSPLVSTRDGFIVGIHSASNFTNTNNYFTSVPKNFMELLTNQEAQQWVSGWRLNADSVLWGGHKVFMVKPEEPFQPVKEATQL [K90H]	0.0984	0.0882	0.0765	0.057	0.0799			0.065	0.1	0.0688	0.129		0.105	0.0546	0.0606	0.101	0.0692	0.0512		
MGESLFKGPRDYNPISSSICHLTNESDGHTTSLYGIGFGPFIITNKHLFRRNNGTLVVQSLHGVFKVKDTTTLQQHLVDGRDMIIIRMPKDFPPHPQKLKFREPQREERICLVTTNFQTKSMSSMVSDTSCTFPSGDGIFWKHWIQTKDGQCGSPLVSTRDGFIVGIHSASNFTNTNNYFTSVPKNFMELLTNQEAQQWVSGWRLNADSVLWGGHKVFMVKPEEPFQPVKEATQL [F95H]	0.0677		0.0793	0.0458	0.067	0.0727		0.0538	0.0895	0.0626	0.0769	0.0746	0.0728	0.0598	0.054				0.0605	
MGESLFKGPRDYNPISSSICHLTNESDGHTTSLYGIGFGPFIITNKHLFRRNNGTLVVQSLHGVFKVKDTTTLQQHLVDGRDMIIIRMPKDFPPFPQKLKFREPIREERICLVTTNFQTKSMSSMVSDTSCTFPSGDGIFWKHWIQTKDGQCGSPLVSTRDGFIVGIHSASNFTNTNNYFTSVPKNFMELLTNQEAQQWVSGWRLNADSVLWGGHKVFMVKPEEPFQPVKEATQL [Q105I]	0.116			0.0587				0.0677	0.104	0.0783			0.128	0.0538	0.067	0.0755	0.0747	0.0645		0.0596
MGESLFKGPRDYNPISSSICHLTNESDGHTTSLYGIGFGPFIITNKHLFRRNNGTLVVQSLHGVFKVKDTTTLQQHLVDGRDMIIIRMPKDFPPFPQKLKFREPLREERICLVTTNFQTKSMSSMVSDTSCTFPSGDGIFWKHWIQTKDGQCGSPLVSTRDGFIVGIHSASNFTNTNNYFTSVPKNFMELLTNQEAQQWVSGWRLNADSVLWGGHKVFMVKPEEPFQPVKEATQL [Q105L]	0.105		0.101				0.082	0.0685	0.108	0.0674	0.135		0.0809		0.0729		0.081		0.0945	
MGESLFKGPRDYNPISSSICHLTNESDGHTTSLYGIGFGPFIITNKHLFRRNNGTLVVQSLHGVFKVKDTTTLQQHLVDGRDMIIIRMPKDFPPFPQKLKFMEPQREERICLVTTNFQTKSMSSMVSDTSCTFPSGDGIFWKHWIQTKDGQCGSPLVSTRDGFIVGIHSASNFTNTNNYFTSVPKNFMELLTNQEAQQWVSGWRLNADSVLWGGHKVFMVKPEEPFQPVKEATQL [R102M]	0.0557		0.0504	0.0406	0.0548	0.077	0.0502	0.0445	0.0548	0.0616	0.0576	0.039	0.0551	0.0626	0.06				0.0425	0.0544
MGESLFKGPRDYNPISSSICHLTNESDGHTTSLYGIGFGPFIITNKHLFRRNNGTLVVQSLHGVFKVKDTTTLQQHLVDGRDMIIIRMPKDFPPFPQKLKFREPQSEERICLVTTNFQTKSMSSMVSDTSCTFPSGDGIFWKHWIQTKDGQCGSPLVSTRDGFIVGIHSASNFTNTNNYFTSVPKNFMELLTNQEAQQWVSGWRLNADSVLWGGHKVFMVKPEEPFQPVKEATQL [R106S]	0.0938			0.0659	0.0787	0.0653		0.0618	0.1	0.0757	0.109		0.112	0.048	0.0488		0.0663	0.0652	0.076	
MGESLFKGPRDYNPISSSICHLTNESDGHTTSLYGIGFGPFIITNKHLFRRNNGTLVVQSLHGVFKVKDTTTLQQHLVDGRDMIIIRMPKDFPPFPQKLKFREPQREERKCLVTTNFQTKSMSSMVSDTSCTFPSGDGIFWKHWIQTKDGQCGSPLVSTRDGFIVGIHSASNFTNTNNYFTSVPKNFMELLTNQEAQQWVSGWRLNADSVLWGGHKVFMVKPEEPFQPVKEATQL [I110K]	0.0562		0.063	0.05		0.0507	0.0665	0.013	0.0568	0.0508	0.066		0.0603	0.0527	0.0485	0.0559	0.0595	0.0414	0.052	
MGESLFKGPRDYNPISSSICHLTNESDGHTTSLYGIGFGPFIITNKHLFRRNNGTLVVQSLHGVFKVKDTTTLQQHLVDGRDMIIIRMPKDFPPFPQKLKFREPQREERIDLVTTNFQTKSMSSMVSDTSCTFPSGDGIFWKHWIQTKDGQCGSPLVSTRDGFIVGIHSASNFTNTNNYFTSVPKNFMELLTNQEAQQWVSGWRLNADSVLWGGHKVFMVKPEEPFQPVKEATQL [C111D]	0.0497	0.059	0.0459	0.0617	0.0553			0.0567	0.0645	0.0457	0.0674		0.0651	0.0552	0.0632	0.0638	0.0501		0.0612	
MGESLFKGPRDYNPISSSICHLTNESDGHTTSLYGIGFGPFIITNKHLFRRNNGTLVVQSLHGVFKVKDTTTLQQHLVDGRDMIIIRMPKDFPPFPQKLKFREPQREERIHLVTTNFQTKSMSSMVSDTSCTFPSGDGIFWKHWIQTKDGQCGSPLVSTRDGFIVGIHSASNFTNTNNYFTSVPKNFMELLTNQEAQQWVSGWRLNADSVLWGGHKVFMVKPEEPFQPVKEATQL [C111H]	0.116			0.0656	0.0864			0.0654	0.114	0.0622	0.106		0.0689	0.0545		0.0975	0.0556		0.122	
MGESLFKGPRDYNPISSSICHLTNESDGHTTSLYGIGFGPFIITNKHLFRRNNGTLVVQSLHGVFKVKDTTTLQQHLVDGRDMIIIRMPKDFPPFPQKLKFRTPQREERICLVTTNFQTKSMSSMVSDTSCTFPSGDGIFWKHWIQTKDGQCGSPLVSTRDGFIVGIHSASNFTNTNNYFTSVPKNFMELLTNQEAQQWVSGWRLNADSVLWGGHKVFMVKPEEPFQPVKEATQL [E103T]	0.128			0.058	0.0813		0.0756	0.0727	0.0973	0.0681	0.108			0.0592			0.0467			
MGESLFKGPRDYNPISSSICHLTNESDGHTTSLYGIGFGPFIITNKHLFRRNNGTLVVQSLHGVFKVKDTTTLQQHLVDGRDMIIIRMPKDFPPFPQKQKFREPQREERICLVTTNFQTKSMSSMVSDTSCTFPSGDGIFWKHWIQTKDGQCGSPLVSTRDGFIVGIHSASNFTNTNNYFTSVPKNFMELLTNQEAQQWVSGWRLNADSVLWGGHKVFMVKPEEPFQPVKEATQL [L99Q]	0.095	0.061		0.0588					0.0973		0.115		0.106	0.0529			0.0444	0.0619		
MGESLFKGPRDYNPISSSICHLTNESDGHTTSLYGIGFGPFIITNKHLFRRNNGTLVVQSLHGVFKVKDTTTLQQHLVDGRDMIIIRMPKDFPPFPQSLKFREPQREERICLVTTNFQTKSMSSMVSDTSCTFPSGDGIFWKHWIQTKDGQCGSPLVSTRDGFIVGIHSASNFTNTNNYFTSVPKNFMELLTNQEAQQWVSGWRLNADSVLWGGHKVFMVKPEEPFQPVKEATQL [K98S]	0.113			0.0674	0.0585			0.0674	0.1		0.122	0.0606	0.0734		0.0757	0.0799	0.0802	0.0641	0.0879	
MGESLFKGPRDYNPISSSICHLTNESDGHTTSLYGIGFGPFIITNKHLFRRNNGTLVVQSLHGVFKVKDTTTLQQHLVDGRDMIIIRMPKDFPPFPQPLKFREPQREERICLVTTNFQTKSMSSMVSDTSCTFPSGDGIFWKHWIQTKDGQCGSPLVSTRDGFIVGIHSASNFTNTNNYFTSVPKNFMELLTNQEAQQWVSGWRLNADSVLWGGHKVFMVKPEEPFQPVKEATQL [K98P]	0.0986	0.0767	0.0751	0.0602	0.0618			0.0661	0.0983	0.0671	0.112	0.0639	0.116	0.0527	0.0638	0.0783	0.0587	0.0683		
MGESLFKGPRDYNPISSSICHLTNESDGHTTSLYGIGFGPFIITNKHLFRRNNGTLVVQSLHGVFKVKDTTTLQQHLVDGRDMIIIRMPKDFPPFPQNLKFREPQREERICLVTTNFQTKSMSSMVSDTSCTFPSGDGIFWKHWIQTKDGQCGSPLVSTRDGFIVGIHSASNFTNTNNYFTSVPKNFMELLTNQEAQQWVSGWRLNADSVLWGGHKVFMVKPEEPFQPVKEATQL [K98N]	0.129		0.0863	0.074	0.0786	0.0495		0.0606	0.103	0.0653	0.118		0.0932	0.0678	0.0665	0.101	0.0413			
MGESLFKGPRDYNPISSSICHLTNESDGHTTSLYGIGFGPFIITNKHLFRRNNGTLVVQSLHGVFKVKDTTTLQQHLVDGRDMIIIRMPKDFPWFPQKLKFREPQREERICLVTTNFQTKSMSSMVSDTSCTFPSGDGIFWKHWIQTKDGQCGSPLVSTRDGFIVGIHSASNFTNTNNYFTSVPKNFMELLTNQEAQQWVSGWRLNADSVLWGGHKVFMVKPEEPFQPVKEATQL [P94W]	0.0883	0.0702	0.0779	0.0641	0.0721	0.067		0.0584	0.101	0.0552	0.103		0.0766	0.0514	0.0742	0.0324	0.0622	0.0504	0.0706	
MGESLFKGPRDYNPISSSICHLTNESDGHTTSLYGIGFGPFIITNKHLFRRNNGTLVVQSLHGVFKVKDTTTLQQHLVDGRDMIIIRMPKDFPTFPQKLKFREPQREERICLVTTNFQTKSMSSMVSDTSCTFPSGDGIFWKHWIQTKDGQCGSPLVSTRDGFIVGIHSASNFTNTNNYFTSVPKNFMELLTNQEAQQWVSGWRLNADSVLWGGHKVFMVKPEEPFQPVKEATQL [P94T]	0.0953				0.0793				0.115		0.106			0.0654	0.063		0.0589		0.0923	
